Our source for the binding signal values is PMC5836133.

The list shows a part of the results. At the low end of the ranking the order means little.

The subject of the assay is T1, GST-NbGlk1(82-244).
T1 sequence: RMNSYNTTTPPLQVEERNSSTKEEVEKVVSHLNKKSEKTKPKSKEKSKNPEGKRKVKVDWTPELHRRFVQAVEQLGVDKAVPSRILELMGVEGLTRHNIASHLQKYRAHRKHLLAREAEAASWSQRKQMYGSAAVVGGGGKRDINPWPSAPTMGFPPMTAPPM
Nature of the assay: protein-binding microarray.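 Further: rank-based score ranging −0.5 to +0.5 with E above 0.45 taken as significant binding.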 The following applies: NbGlk1 is a Golden2-like transcription factor of Nicotiana benthamiana; high values mean tight binding; most listed sequences are background and not binding sites; double strand, one strand shown.
For ACTGTCAG, the binding signal is -0.148 E-score.
For the sequence AACCTCCT, the binding signal was -0.212 E-score.
To AATGACGA belongs -0.0116 E-score; to ACAACGGA, 0.0678 E-score.
In turn, AGAAGATA showed a binding signal of 0.26 E-score.
To AGCCCTTA belongs -0.299 E-score.
To AACAGAGT belongs -0.0944 E-score.
To ACAACCAT belongs -0.161 E-score; to ATGCCCTA, -0.162 E-score; to ATGAAGCA, -0.092 E-score.
ATTCAAGC: the binding signal was -0.0708 E-score.
Consider ATATAAGG, for which the binding signal was determined as 0.0598 E-score.
ACACCCCT: the binding signal is -0.207 E-score.
Sequence AATGAAAT gave a binding signal of 0.236 E-score.
To ACGGCGCC belongs -0.205 E-score.
As to AGCCAACG, the binding signal is -0.362 E-score.
ATCTGGCC yielded a binding signal of 0.195 E-score.
To ACCACCCT belongs -0.151 E-score; to AGCGGTTC, -0.116 E-score.
As for ACCATAAA, the binding signal turned out to be 0.166 E-score.
To ACGATGAG belongs -0.126 E-score; to CACTACTG, -0.065 E-score.
As for CAGACGGC, the binding signal is -0.256 E-score.
To ATTAAATG belongs 0.0475 E-score; to ATACGGAG, 0.0606 E-score.
To ATCTATAC belongs 0.231 E-score.
To ACTGGGGG belongs -0.132 E-score.
ACCAAACG gave a binding signal of -0.109 E-score.
To AGTGCATG belongs -0.101 E-score; to AGCTTCTA, -0.0236 E-score; to ACAACAGC, -0.0918 E-score.
To AAATTGAG belongs 0.045 E-score.
ATATAGAT displayed a binding signal of 0.352 E-score.
For AAGTGTTC, the binding signal was -0.0902 E-score.
To ACTTACTG belongs -0.0165 E-score; to CAGCATGC, -0.209 E-score; to AGAGCATA, 0.0141 E-score.
To ATGCGGCA belongs -0.0795 E-score; to ATTCCTCA, 0.286 E-score.
To CAGACACC belongs -0.112 E-score; to AATTAGGA, 0.0996 E-score; to ATGTCGGG, -0.168 E-score.
As for AGACTGGA, the binding signal was determined as 0.0227 E-score.
To CAACTACA belongs -0.11 E-score; to ACAACTCC, -0.147 E-score.
To AATCAGAA belongs 0.333 E-score.
AAACTGGG returned a binding signal of -0.114 E-score.
To CACTCGGG belongs -0.0887 E-score.
To ACCTAGAT belongs 0.291 E-score; to ATCACAAT, 0.24 E-score.
To ATCTACAT belongs 0.296 E-score; to ACGTTTTG, -0.00795 E-score; to ATCAGCGC, 0.0548 E-score.
The sequence AAGATTGC showed a binding signal of 0.443 E-score.
To ACTATTAG belongs 0.00525 E-score; to AAAGATAC, 0.21 E-score; to ATCGTAAA, 0.239 E-score.
The sequence ATGAAAAC showed a binding signal of 0.137 E-score.
To AGATAGCT belongs 0.0834 E-score; to AAACTAAA, 0.144 E-score.
To ACTAGCAT belongs -0.043 E-score; to AGACTGCC, -0.333 E-score; to AGTATACA, 0.135 E-score.
ATGCGCAT displayed a binding signal of 0.161 E-score.
To AGGAACTA belongs 0.0173 E-score; to AGAATTGA, -0.0591 E-score; to ACGACGCT, -0.0998 E-score.
To AAGGTCCT belongs -0.304 E-score; to AACACGGC, -0.177 E-score; to ATATTTCG, 0.347 E-score.
In the case of ACTTTTCC, the binding signal was -0.15 E-score.
To AATCAGCG belongs 0.312 E-score; to ACTATAGA, -0.0521 E-score; to AGCGAGAG, -0.0344 E-score.
AGCTTGAA registered a binding signal of -0.115 E-score.
In turn, ATAGTCTC gave a binding signal of -0.0881 E-score.
The sequence AGTACCTC displayed a binding signal of -0.157 E-score.
To AGTAGGAC belongs -0.018 E-score; to AGCTTGCA, -0.143 E-score; to ACTTAGTG, -0.0215 E-score.
ATTATGGA showed a binding signal of 0.277 E-score.
To AGCCGGCT belongs -0.307 E-score.
ATCAGGGA had a binding signal of 0.0964 E-score.
In turn, ACACAGAC gave a binding signal of -0.0103 E-score.
To AGGCGTCG belongs -0.218 E-score; to AAGGAAAT, 0.348 E-score; to ATGCCATA, -0.038 E-score.
Take AAAGTATG: the binding signal is -0.0621 E-score.
The sequence AAGTTATA showed a binding signal of 0.0726 E-score.
To ATTCGCCC belongs 0.275 E-score; to AATTGGAC, 0.0307 E-score.
To ACCGAGAC belongs -0.137 E-score; to ATCATACC, 0.0944 E-score.
For AAGGAGAG, the binding signal was -0.206 E-score.
AGGCCGTA showed a binding signal of -0.277 E-score.
To AAAACGAC belongs -0.0694 E-score; to ACATCGTA, 0.0233 E-score; to AAAGTAAT, 0.215 E-score.
As to ATAATTAT, the binding signal was 0.164 E-score.
In turn, ATTGTACG came in with a binding signal of 0.138 E-score.
AGACTCAG: the binding signal was -0.17 E-score.
AAACAGTG came in with a binding signal of -0.146 E-score.
Sequence AACAGATG returned a binding signal of -0.0902 E-score.
To ATCAGTGA belongs 0.218 E-score; to CACCTCCC, -0.157 E-score.
CAGCCGCC returned a binding signal of -0.195 E-score.
To AAAATCGA belongs 0.381 E-score; to AGCTTGGC, -0.247 E-score; to AAGCATGA, -0.111 E-score.
To CAAGTTCC belongs -0.194 E-score; to AGATAATG, 0.183 E-score; to ATAATTCC, 0.153 E-score.
To AATTATTA belongs 0.153 E-score; to ACACCGTA, 0.00495 E-score.
In turn, ACGCTAGT displayed a binding signal of -0.205 E-score.
CAATTCCA: the binding signal was 0.0894 E-score.
Consider CAGCCACC, for which the binding signal was -0.15 E-score.
To ATATGGGC belongs 0.0983 E-score; to AGTAGCGG, -0.134 E-score.
To ACGAAGAA belongs 0.026 E-score.
To CAAGGCTG belongs -0.272 E-score; to AAACGAAG, -0.0522 E-score.
In turn, AGAATATA registered a binding signal of 0.267 E-score.
To AAAGACAT belongs -0.0244 E-score; to AACTTGCA, -0.00542 E-score; to AACTCACC, -0.217 E-score.
Sequence ACCCCCGT displayed a binding signal of -0.279 E-score.
For ATAATCCA, the binding signal is 0.354 E-score.
To ATTGGTGA belongs 0.0654 E-score.
To ACGCCTAC belongs -0.258 E-score.
To AGGCCTGC belongs -0.302 E-score.
As for ATACGCAG, the binding signal turned out to be 0.163 E-score.
In turn, ACTGGCGG displayed a binding signal of -0.0825 E-score.
To ACTCTATC belongs -0.102 E-score; to AGGTCTTC, -0.29 E-score; to AGCCATCA, -0.0735 E-score.
ACGAGTTG gave a binding signal of -0.12 E-score.
To AACCGTCC belongs -0.096 E-score.
To AGAGTGTG belongs 0.0233 E-score; to AGCCCCTG, -0.237 E-score.
In turn, AGGAGAAT returned a binding signal of 0.267 E-score.
To AAAGCAGG belongs -0.119 E-score; to AGGCAGTC, -0.276 E-score; to AGGAGCTC, -0.293 E-score.
To CAACCCGC belongs -0.0505 E-score; to AGTATACT, 0.133 E-score; to ATCGCAAC, 0.187 E-score.
ATGCTCGG came in with a binding signal of -0.193 E-score.
For AACAAACC, the binding signal is -0.0276 E-score.
As to ACCAACCC, the binding signal is -0.312 E-score.
To ACGCTCAT belongs -0.125 E-score; to ACGCCCCG, -0.279 E-score.
Take CACGCCCA: the binding signal is -0.281 E-score.
Take AAAATCTC: the binding signal turned out to be 0.453 E-score.
To AACAAGAC belongs -0.128 E-score.
Turning to AGTAGCAG, the binding signal is -0.108 E-score.
To AGCGGGGC belongs -0.25 E-score; to CAATAGAA, 0.0372 E-score.
Turning to ACTTCTAT, the binding signal was -0.0208 E-score.
The sequence AGCCTTAC displayed a binding signal of -0.0438 E-score.
To AACCCCAT belongs -0.155 E-score; to ACGCGGGC, -0.213 E-score; to ATATCATA, 0.307 E-score.
On to ATATATCA, for which the binding signal came out at 0.276 E-score.
To ACACGTGT belongs -0.0426 E-score; to ACCCGTTC, -0.151 E-score; to AAATGGCG, -0.0153 E-score.
On to ATATCAAA, for which the binding signal was 0.228 E-score.
To AATAATCA belongs 0.184 E-score; to ATTCTTAC, 0.198 E-score; to CACAGATG, -0.0732 E-score.
To ACACGGAG belongs -0.17 E-score; to ATGAACGC, -0.118 E-score; to AAGCAAGA, 0.107 E-score.
Turning to AATGAGTC, the binding signal came to 0.00779 E-score.
To AGCTCCTG belongs -0.234 E-score.
To AACCGCGA belongs 0.036 E-score.
Regarding AACATGAC, the binding signal is -0.0805 E-score.
To AGTATCGC belongs 0.156 E-score; to AAACGTTT, 0.0762 E-score; to AACAATAG, 0.104 E-score.
On to AATCGTTC, for which the binding signal was 0.0933 E-score.
To AACTTCAG belongs 0.00867 E-score; to ATTCTAAG, 0.193 E-score; to AACTCATT, -0.0362 E-score.
To AGTACTAA belongs -0.0591 E-score; to ACGGTGCC, -0.292 E-score; to AGAGATTC, 0.434 E-score.
AATGTCAG gave a binding signal of -0.0343 E-score.
To ATGGCCAC belongs -0.144 E-score; to AACTGAGG, -0.0452 E-score.
To CAAGACCG belongs -0.218 E-score; to ATAAGCAG, -0.045 E-score.
To CAACTGGA belongs -0.123 E-score; to AACGTCGG, -0.0846 E-score.
Sequence ATGTCAGA yielded a binding signal of -0.0173 E-score.
To ACAAAACA belongs 0.171 E-score; to AAACTCCA, -0.225 E-score.
AACAGTTG: the binding signal is 0.00335 E-score.
CAAGGCGC yielded a binding signal of -0.126 E-score.
As for CACCCCAC, the binding signal is -0.142 E-score.
CAATCCGC showed a binding signal of 0.305 E-score.
The sequence ATCCTGAG displayed a binding signal of 0.23 E-score.
To AACGGTGA belongs 0.0509 E-score; to AACGGGGG, -0.105 E-score.
With AAAAACGT, the binding signal was -0.0212 E-score.
To ATTAGAAG belongs 0.0962 E-score; to ATTGACCG, -0.0574 E-score.
To AATCCGAT belongs 0.432 E-score.
To ACGGGTCC belongs -0.326 E-score; to CAATCTAC, 0.341 E-score; to ACTAGTTC, -0.14 E-score.
AGGGATTC registered a binding signal of 0.359 E-score.
On to AGTAACTG, for which the binding signal came to 0.0034 E-score.
To AGCGGTCA belongs -0.13 E-score; to CAGACGCC, -0.259 E-score.
In turn, ATCCTGCA yielded a binding signal of 0.261 E-score.
In the case of CACCGCCC, the binding signal is -0.135 E-score.
ATTTAACA registered a binding signal of 0.19 E-score.
